About 14,000 (4.5%) of roughly 310,000 compounds showed an effect of 50% or more. Effects have a minus sign here. The list shows a part of the results.
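Also: peak tail current of the secondary pulse compared with the same well before compound.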

Sequence of human ether-à-go-go-related gene (hERG) potassium channel (Q12809 whole entry, looked up): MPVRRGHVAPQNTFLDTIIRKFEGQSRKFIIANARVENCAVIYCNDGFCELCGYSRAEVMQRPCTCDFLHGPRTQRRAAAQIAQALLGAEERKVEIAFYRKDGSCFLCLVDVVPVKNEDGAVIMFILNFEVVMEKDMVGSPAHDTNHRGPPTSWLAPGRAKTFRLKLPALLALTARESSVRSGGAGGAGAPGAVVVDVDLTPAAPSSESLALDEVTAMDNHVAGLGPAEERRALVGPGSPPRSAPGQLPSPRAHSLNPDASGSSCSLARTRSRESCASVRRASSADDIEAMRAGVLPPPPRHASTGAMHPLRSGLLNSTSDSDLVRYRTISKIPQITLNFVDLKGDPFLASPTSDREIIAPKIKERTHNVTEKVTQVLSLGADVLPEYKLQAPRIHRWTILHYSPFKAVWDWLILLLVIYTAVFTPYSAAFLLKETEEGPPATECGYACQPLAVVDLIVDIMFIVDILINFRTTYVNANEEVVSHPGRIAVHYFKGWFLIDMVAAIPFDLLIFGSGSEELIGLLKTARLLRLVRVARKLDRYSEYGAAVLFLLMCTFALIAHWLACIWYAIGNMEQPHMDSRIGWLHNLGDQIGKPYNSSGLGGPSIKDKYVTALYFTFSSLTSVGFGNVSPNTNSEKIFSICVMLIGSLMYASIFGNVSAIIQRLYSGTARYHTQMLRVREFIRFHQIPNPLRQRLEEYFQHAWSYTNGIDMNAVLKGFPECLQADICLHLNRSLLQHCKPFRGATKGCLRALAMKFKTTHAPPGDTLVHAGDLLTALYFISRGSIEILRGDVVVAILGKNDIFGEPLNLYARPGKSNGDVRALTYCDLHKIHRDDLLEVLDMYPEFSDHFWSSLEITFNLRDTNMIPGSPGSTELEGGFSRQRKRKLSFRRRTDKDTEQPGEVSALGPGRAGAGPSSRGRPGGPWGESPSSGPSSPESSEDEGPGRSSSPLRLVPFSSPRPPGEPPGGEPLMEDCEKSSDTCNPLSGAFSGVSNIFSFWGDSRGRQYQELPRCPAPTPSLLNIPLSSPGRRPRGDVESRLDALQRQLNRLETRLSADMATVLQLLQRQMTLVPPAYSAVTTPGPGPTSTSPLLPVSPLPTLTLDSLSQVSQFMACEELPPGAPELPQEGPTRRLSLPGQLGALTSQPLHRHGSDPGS

This test has as its target human ether-à-go-go-related gene (hERG) potassium channel (human, UniProt Q12809). Briefly: primary screen, population patch clamp on CHO cells stably expressing hERG.
`Cc1ccccc1OCc1nc2ccccc2c(=O)n1/N=C/c1c[nH]c2ccccc12`: the “hERG current change (%, negative = inhibition) at 10uM” value is recorded as -0.579%.

For `COc1ccccc1-c1nc(SCC(=O)Nc2ccccc2)n[nH]1`, the “hERG current change (%, negative = inhibition) at 10uM” value is on record as -25.7%. In the case of `COCCOC(=O)C1=C(C)NC2=C(C(=O)CCC2)C1c1ccc(N(C)C)cc1` (stereo not drawn) it was -2.66%; in that of `Cc1cc(-c2nnc(SCC(=O)Nc3ccccc3C(F)(F)F)n2N)n[nH]1`, 20.4%; in that of `Cc1nn(C)c(C)c1NS(=O)(=O)c1ccccc1Cl`, 4.16%. On to `CCC(c1nnnn1Cc1ccco1)N1CCC(C(N)=O)CC1.Cl` (stereo not drawn), for which the “hERG current change (%, negative = inhibition) at 10uM” value is 12.9%. Regarding `CCN(CC)P(=O)(Nc1ccc([N+](=O)[O-])cc1)c1c(C)nn(CCC#N)c1NC(=O)c1ccc(Cl)cc1Cl` (stereo not drawn), the “hERG current change (%, negative = inhibition) at 10uM” value was found to be 3.17%.

Turning to `CCC(C)N1CCCC1C(=O)Nc1c(C)cc(C)cc1C.Cl` (stereo not drawn), the “hERG current change (%, negative = inhibition) at 10uM” value is -2.36%. Then `C/C(=N/OCC(=O)NCCCCCCNC(=O)CO/N=C(/C)c1cccs1)c1cccs1`, with -20.8%; and `CCc1cc(C(=O)NCCN(C)C)cs1`, with -11.2%.

As for `C/C(=N\NC(=O)CSc1nc2ccccc2o1)c1cccc(O)c1`, the “hERG current change (%, negative = inhibition) at 10uM” value is listed as -3.71%. Then `COC(=O)c1cccc(NC(=S)N2CCN(C)CC2)c1`, with 7.81%; and `CCN(CC(=O)N1CCCC1)S(=O)(=O)c1ccc2ccccc2c1`, with 5.08%. Then `CCC1CCc2c(sc(NC(=O)C3CC=CCC3C(=O)O)c2C#N)C1` (stereo not drawn), with -8.14%; and `O=c1[nH]nc(N/N=C/c2ccccc2OC(F)F)c(=O)[nH]1`, with 11.4%.

For the compound `CCCN(CC(=O)Nc1cc(Cl)ccc1Cl)C(=O)c1ccc2n[nH]nc2c1`, the “hERG current change (%, negative = inhibition) at 10uM” value is -33.4%. For `C=CCN1C(=O)C(Cc2ccccc2Cl)SC1=Nc1ccc(C(=O)O)cc1` (stereo not drawn), the “hERG current change (%, negative = inhibition) at 10uM” value is listed as -5.65%. Then `Cc1cc(C)cc(NC(=O)CSc2ccc(-c3ccccn3)nn2)c1`, with 8.61%; and `CCN(CC)S(=O)(=O)c1cccc(C(=O)NC2=NCCS2)c1`, with -5.59%; and `CC(C)COC(=O)NC1c2ccccc2Oc2ccccc21`, with -3.65%. On to `CC1=Nc2ccccc2/C1=C\c1nc(-c2ccc(F)cc2)oc1O`, for which the “hERG current change (%, negative = inhibition) at 10uM” value worked out at 21.4%. Then `CC(=O)N1CCN(C(=O)CNC(=O)c2ccc(Br)o2)CC1`, with 22.2%; and `CC(C)C1Oc2ccccc2C(=O)N(CC(=O)c2ccc3c(c2)OCCO3)C1=O` (stereo not drawn), with 22.2%; and `Cc1ccccc1OCCn1c(=S)[nH]c2ccccc21`, with 12%. In the case of `O=C1c2ccccc2C(=O)c2[nH]cnc21` it was 10.4%; in that of `CCN(CC)C(=O)Oc1ccc(Cl)c2ccccc12`, -12.5%.

Regarding `COc1ccc2[nH]c3c(NCc4ccco4)ncnc3c2c1`, the “hERG current change (%, negative = inhibition) at 10uM” value was -18.1%.

For the compound `Cc1nnc(NC(=O)c2ccccc2F)s1`, the “hERG current change (%, negative = inhibition) at 10uM” value worked out at 14.9%.

On to `COc1ccc(NC(=O)CCN2C(=O)C3C4C=CC(C4)C3C2=O)cc1` (stereo not drawn), for which the “hERG current change (%, negative = inhibition) at 10uM” value is listed as 2.21%.

Turning to `Cc1ccc(N(CC(=O)O)C2SC(=O)NC2=O)cc1` (stereo not drawn), the “hERG current change (%, negative = inhibition) at 10uM” value was found to be 4.69%.

Take `Cc1cc(C(=O)O)c(CSc2ncn[nH]2)o1`: the “hERG current change (%, negative = inhibition) at 10uM” value was 14.4%. In the case of `Cc1cccc(N(CC(=O)N2CCN(c3ccccc3F)CC2)S(C)(=O)=O)c1` it was -10.7%; in that of `COc1cc(NS(=O)(=O)c2ccc(NC(=O)/C=C/c3ccc([N+](=O)[O-])cc3)cc2)ncn1`, 14.3%. Then `CCOC(=O)c1c(NC(=S)N2CCN(C)CC2)sc2c1CCN(C(=O)OCC)C2`, with -2.02%. In the case of `COc1ccc(C(=O)O)c(O)c1`, the “hERG current change (%, negative = inhibition) at 10uM” value worked out at 3.05%. As to `CCOC(=O)CN(C(=O)CNC(=O)c1ccco1)C(C(=O)NC1CCCC1)c1ccccc1OCC` (stereo not drawn), the “hERG current change (%, negative = inhibition) at 10uM” value came out at 6.54%. Then `COc1ccc(CCNS(=O)(=O)CCNC(=O)c2ccc3c(c2)OCO3)cc1OC`, with 1.47%.

For the compound `COc1ccc(NC(=O)NCCCN2CCc3ccccc3C2)cc1`, the “hERG current change (%, negative = inhibition) at 10uM” value is on record as -69.2%. In the case of `CCOCC(=O)Nc1cc(C(=O)Nc2ccccc2)ccc1Cl` it was -1.16%; in that of `Cc1ccccc1C(=O)NNC(=O)c1ccoc1C`, -13.4%. In the case of `CSCCC(NC(=O)/C(=C\c1ccco1)NC(=O)c1ccco1)C(=O)O` (stereo not drawn) it was -1.15%; in that of `Fc1ccccc1N1CCN(c2nnnn2-c2ccccc2)CC1`, -2.42%; in that of `CCCC(=O)Nc1cccc(NC(=O)c2ccc3c(c2)OCO3)c1`, -52.3%. In the case of `COc1cccc(-c2nn(-c3ccccc3)cc2C(=O)Nc2nccs2)c1` it was -2.22%; in that of `CC(C)c1nnc(NC(=O)C2CCCN(C(=O)Nc3ccc(F)cc3)C2)s1` (stereo not drawn), -1.17%. In the case of `O=C(NNS(=O)(=O)c1ccc(F)cc1F)C1Cc2c(ccc3ccccc23)O1` (stereo not drawn), the “hERG current change (%, negative = inhibition) at 10uM” value was determined as 16.7%.

With `C=CCn1c(=O)c(C(=O)NC2CC2)c(O)c2cc(OC)c(OC)cc21`, the “hERG current change (%, negative = inhibition) at 10uM” value worked out at 10.5%.

On to `CCc1cc(=O)oc2cc(C)cc(OCC(=O)NC(Cc3c[nH]c4ccc(O)cc34)C(=O)O)c12` (stereo not drawn), for which the “hERG current change (%, negative = inhibition) at 10uM” value turned out to be 16.1%. Then `O=c1nccc(Nc2ccccc2)[nH]1`, with 16.4%; and `O=C(Nc1ccccc1Br)C1CC(=O)N(c2ccc3c4c(cccc24)CC3)C1` (stereo not drawn), with 0.563%. Then `Cc1cc2c(NC(=O)Nc3ccc(C(F)(F)F)cc3)cccc2nn1`, with -2.37%. In the case of `C[C@H]1CN=C(Nc2ccccc2)N1CCc1ccccc1` it was -9.89%.

`O=C(COc1ccc2c3c(c(=O)oc2c1)CCCC3)NC(Cc1ccc(Cl)cc1)C(=O)O` (stereo not drawn): the “hERG current change (%, negative = inhibition) at 10uM” value was 5.92%. With `Cc1ccc(S(=O)(=O)NC(CC(C)C)C(=O)Oc2ccc3c4c(c(=O)oc3c2)CCC4)cc1` (stereo not drawn), the “hERG current change (%, negative = inhibition) at 10uM” value was found to be 16.8%.

Take `CCOc1cc(CN2CCN(S(=O)(=O)Cc3ccccc3)CC2)ccc1OC.O=C(O)C(=O)O`: the “hERG current change (%, negative = inhibition) at 10uM” value is given as -10.9%. Then `O=C(CSc1nnnn1C1CCCCC1)NNC(=O)c1ccco1`, with 11.3%. Take `COc1cccc(OCCNC(=O)c2cc(OC)c(OC)c(OC)c2)c1`: the “hERG current change (%, negative = inhibition) at 10uM” value is given as 19%.

On to `COc1ccc(C(OC(=O)c2ccco2)C(=O)NC2CCCC2)cc1` (stereo not drawn), for which the “hERG current change (%, negative = inhibition) at 10uM” value was 25.1%. As to `CSc1sc(C(=O)N2CCc3ccccc32)cc1S(=O)(=O)C(C)C`, the “hERG current change (%, negative = inhibition) at 10uM” value is 14.2%. Then `CS(=O)(=O)c1ccccc1C(=O)Nc1cc2c(cc1C(=O)O)OCCCO2`, with -57.3%; and `Cc1ccc(-n2nc3c([n+]2[O-])CCc2c-3no[n+]2[O-])cc1`, with 14.3%; and `O=C(NCc1ccc(N2CCCC2=O)cc1)c1cccc(Cl)c1`, with 1.27%.

As for `Cc1ccc(S(=O)(=O)N2CCSC2)cc1C`, the “hERG current change (%, negative = inhibition) at 10uM” value stood at 1.01%. As to `O=C(CCN1C(=O)C2CC=C(Cl)CC2C1=O)NC1CCCCC1` (stereo not drawn), the “hERG current change (%, negative = inhibition) at 10uM” value is recorded as 1.35%. In the case of `CC1=C(C(=O)OC(C)C)C(c2ccco2)NC(=O)N1` (stereo not drawn), the “hERG current change (%, negative = inhibition) at 10uM” value is 8.67%. Regarding `COc1cc(/C=C/C(=O)O)cc(S(=O)(=O)Nc2ccc3nc(SC)sc3c2)c1OC`, the “hERG current change (%, negative = inhibition) at 10uM” value is listed as 11.3%.

Take `Cc1ccc2cc(C#N)c(SCC(=O)NCC3CCCO3)nc2c1` (stereo not drawn): the “hERG current change (%, negative = inhibition) at 10uM” value is given as 12.3%. `C=CCn1cc(C(=O)NCCCOCC)c(=O)c2cc(S(=O)(=O)N(CC)CC)ccc21`: the “hERG current change (%, negative = inhibition) at 10uM” value is -33.3%. Then `CC(C)(C)S(=O)(=O)c1cnc(-c2cnccn2)nc1N`, with 9.53%; and `O=C(O)c1ccc(NCc2nc3ccccc3n2CCOc2ccccc2Cl)cc1`, with 14.1%; and `O=C(CN1C(=O)COc2ccccc21)c1cccc(Cl)c1`, with -14.4%. In the case of `CCOc1cc(/C=N/NC(=O)c2nn(C)cc2Br)ccc1OCc1ccccc1` it was 5.59%. Then `O=C1NC(=O)N(c2ccc3c(c2)OCO3)C(=O)/C1=C/c1ccsc1`, with -2.91%; and `O=C(O)c1[nH]c2ccccc2c1C=NCc1ccccc1Cl`, with 19.8%.

As to `CC(C)(C)OC(=O)[C@H](Cc1ccccc1)NC(=O)c1nc[nH]c1C(=O)N1CCc2ccccc2C1`, the “hERG current change (%, negative = inhibition) at 10uM” value is on record as -19.7%. Regarding `COc1ccc(-c2cn(Cc3ccc(C(N)=O)cc3)c(-c3ccc(Cl)nc3)n2)cc1`, the “hERG current change (%, negative = inhibition) at 10uM” value is given as -71.4%.

As to `C/C(=N/O)c1ccc2c(c1)OCCOCCOc1cc(/C(C)=N/O)ccc1OCCOCCO2`, the “hERG current change (%, negative = inhibition) at 10uM” value is on record as -77.3%. Then `Cc1ccc2ccc(S(=O)(=O)NCc3ccccn3)cc2c1`, with 8.22%. Then `CCOc1ccc(S(=O)(=O)NC(C)C(=O)NCc2ccc3c(c2)OCO3)cc1` (stereo not drawn), with 2.83%. Then `CNC(=O)c1cc(Nc2nnc(C)c3ccccc23)ccc1OC`, with 1.5%.

With `CC(=O)NC(CC(=O)O)c1ccc([N+](=O)[O-])cc1` (stereo not drawn), the “hERG current change (%, negative = inhibition) at 10uM” value turned out to be 10.6%. In the case of `COC(=O)c1ccc(OC(=O)c2ccco2)cc1` it was -5.08%; in that of `Cc1ccc(-c2cc(C(F)(F)F)c(C#N)c(SCC(=O)O)n2)cc1`, 20.9%; in that of `CN(C)C(CNc1ncnc2sc3c(c12)CCCCC3)c1ccco1` (stereo not drawn), -35.4%. Then `COc1ccc(S(=O)(=O)N2CCOCC2)cc1NC(=O)c1ccc2c(c1)OCCO2`, with 0.85%; and `CCn1c(=O)c(C(=O)NCCc2ccccc2)c(O)c2ccccc21`, with 19.7%; and `CC(=O)c1ccc(OCCCC(=O)NNC(=O)c2ccccn2)cc1`, with -6.17%. In the case of `COc1ccc2c(C(=O)CN3CCSCC3)c[nH]c2c1` it was -4.01%; in that of `S=C(NCc1cccnc1)NCc1cccnc1`, 14.4%. With `COC(=O)c1c(/N=C/N(C)C)sc2c1CCN(c1ncc(C(F)(F)F)cc1Cl)C2`, the “hERG current change (%, negative = inhibition) at 10uM” value is reported as -14.3%.

These data come from PMC4336329 (PLoS ONE, 2015).
